This is one part of the list. The full chains were built here from the parent and the listed change. Values near 0.05 are background.
B1: TEV protease; numbered along this chain (parent)
chain: MGESLFKGPRDYNPISSSICHLTNESDGHTTSLYGIGFGPFIITNKHLFRRNNGTLVVQSLHGVFKVKDTTTLQQHLVDGRDMIIIRMPKDFPPFPQKLKFREPQREERICLVTTNFQTKSMSSMVSDTSCTFPSGDGIFWKHWIQTKDGQCGSPLVSTRDGFIVGIHSASNFTNTNNYFTSVPKNFMELLTNQEAQQWVSGWRLNADSVLWGGHKVFMVKPEEPFQPVKEATQL

Variants of: B1
Test: raw area under fraction-flipped curve 0-4 h after induction (AUC4h, not background-subtracted), DNA-recorder readout of cleavage of the substrate (dimensionless); higher = more cleavage of the substrate by the protease variant
Conditions: temperature: 34 °C; time window: 0-4 h after rhamnose induction
Procedure: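 In vivo DNA recorder in E. coli TOP10(DE3) ΔrhaA at 34 °C. Each TEVp single-site mutant (parent TEVp 0) is paired with a single-site variant of the 7-mer TEVs (canonical ENLYFQ|S). The substrate sits between flexible linkers in a Bxb1-sfGFP-TEVs-SsrA fusion, so cleavage stabilises Bxb1 and speeds flipping of a recombination array, read by NGS. The value is the raw area under the fraction-flipped curve over 0-4 h after rhamnose induction (AUC4h), with ≥20 reads per time point. It is not background-subtracted; inactive controls average about 0.047.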
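Further: Bxb1 expression induced with 0.2% (w/v) L-rhamnose at OD600 near 0.5, cultures sampled hourly, flipped fraction per protease–substrate barcode pair counted by paired-end Illumina sequencing.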

| Variant | area with substrate EALYFQS | area with substrate ECLYFQS | area with substrate EDLYFQS | area with substrate EELYFQS | area with substrate EGLYFQS | area with substrate EHLYFQS | area with substrate EILYFQS | area with substrate EKLYFQS | area with substrate ELLYFQS | area with substrate EMLYFQS | area with substrate EPLYFQS | area with substrate EQLYFQS | area with substrate ERLYFQS | area with substrate ESLYFQS | area with substrate ETLYFQS | area with substrate EVLYFQS | area with substrate EWLYFQS | area with substrate EYLYFQS | area with substrate EFLYFQS |
| --- | --- | --- | --- | --- | --- | --- | --- | --- | --- | --- | --- | --- | --- | --- | --- | --- | --- | --- | --- |
| N24E | 0.0892 | 0.073 | 0.115 | 0.0847 | 0.0935 | 0.0964 | 0.0774 | 0.104 | 0.065 | 0.0888 | 0.146 | 0.123 | 0.0845 | 0.0884 | 0.122 | 0.0754 | 0.0876 | – | – |
| E25G | 0.102 | 0.0964 | 0.0701 | 0.111 | 0.0797 | 0.0996 | 0.0961 | 0.076 | 0.0781 | 0.0978 | 0.0849 | – | 0.0881 | 0.0927 | 0.109 | 0.0967 | 0.0827 | 0.0942 | – |
| E25N | 0.13 | 0.114 | 0.147 | 0.133 | – | 0.129 | 0.105 | 0.105 | – | 0.117 | 0.116 | 0.129 | 0.11 | 0.132 | 0.114 | 0.115 | 0.0971 | 0.13 | – |
| E25R | 0.123 | 0.101 | 0.153 | 0.128 | 0.0912 | 0.118 | 0.0987 | 0.119 | 0.0986 | 0.0359 | 0.0853 | 0.124 | 0.1 | 0.12 | 0.115 | 0.147 | 0.0924 | – | – |
| E25W | 0.129 | 0.115 | 0.126 | – | 0.0852 | 0.0753 | 0.0884 | 0.107 | 0.0804 | 0.0989 | – | 0.116 | – | 0.113 | 0.106 | 0.0529 | 0.0864 | 0.101 | – |
| E25Y | 0.114 | 0.0886 | 0.133 | – | 0.106 | 0.0983 | 0.119 | 0.105 | 0.0908 | 0.113 | 0.0991 | 0.123 | 0.102 | 0.104 | 0.102 | 0.111 | – | 0.0963 | 0.0933 |
| S26H | 0.0692 | 0.0792 | 0.0796 | 0.0778 | – | – | 0.0968 | 0.122 | – | 0.0742 | – | 0.113 | – | 0.0594 | 0.108 | – | 0.0569 | 0.0863 | – |
| S26L | 0.08 | 0.0711 | 0.0787 | 0.0653 | – | 0.079 | 0.0753 | 0.083 | – | 0.0744 | – | 0.0791 | 0.0542 | 0.0734 | – | 0.0727 | – | – | – |
| S26N | 0.0823 | 0.101 | 0.103 | 0.0642 | 0.0982 | 0.0902 | 0.0653 | 0.108 | 0.0809 | 0.0758 | 0.0824 | 0.0903 | 0.0939 | 0.0781 | 0.0691 | 0.0927 | 0.0709 | 0.0928 | – |
| S26P | 0.0736 | 0.0701 | 0.0702 | 0.0895 | – | 0.0647 | 0.0579 | – | 0.0531 | 0.0723 | 0.0644 | 0.0769 | 0.0631 | – | 0.0604 | 0.0642 | 0.0636 | – | 0.0656 |
| S26W | 0.0792 | 0.0793 | 0.128 | 0.0906 | – | 0.0747 | – | 0.0537 | 0.0712 | 0.0832 | – | 0.0716 | – | 0.0719 | 0.0998 | 0.0712 | 0.0737 | – | – |
| D27C | 0.104 | 0.0823 | 0.113 | 0.121 | – | 0.102 | 0.0526 | 0.101 | – | 0.113 | 0.0666 | 0.12 | 0.12 | 0.0892 | – | 0.108 | 0.0852 | – | – |
